Assay results reported in PMC11592671.
These are yes or no findings as the source states them, for the method shown. Binding seen in cells or lysates may run through a third protein. Some entries that bind do so weakly or less than the wild type. Sequences can lack the tags named with a protein.

By UniProt entry, the sequences of proteins in these tests, tags left out.
UniProt Q8WWY3: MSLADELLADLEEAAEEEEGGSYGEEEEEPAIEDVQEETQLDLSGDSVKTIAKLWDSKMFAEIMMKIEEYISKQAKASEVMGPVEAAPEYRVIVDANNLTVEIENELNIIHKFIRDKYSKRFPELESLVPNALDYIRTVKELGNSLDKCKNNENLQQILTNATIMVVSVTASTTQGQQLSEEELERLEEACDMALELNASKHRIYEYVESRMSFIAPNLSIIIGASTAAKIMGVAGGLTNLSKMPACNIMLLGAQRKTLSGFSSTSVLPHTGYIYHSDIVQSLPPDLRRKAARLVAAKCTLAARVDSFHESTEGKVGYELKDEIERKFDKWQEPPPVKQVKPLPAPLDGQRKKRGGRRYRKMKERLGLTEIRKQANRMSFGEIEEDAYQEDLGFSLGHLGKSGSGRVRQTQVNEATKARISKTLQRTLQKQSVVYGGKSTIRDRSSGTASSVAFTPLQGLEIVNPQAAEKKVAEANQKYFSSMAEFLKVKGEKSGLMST

Legend:
[1] = target: eCFP-PRPF31 (splicing factor PRPF31) (UniProt Q8WWY3); experiment: FRET or BRET; FRET acceptor photobleaching in the nucleus of fixed, co-transfected HeLa cells; eCFP donor, eYFP acceptor; FRET efficiencies normalized to 1 by the positive control eCFP-c-eYFP
[2] = target: T1, harmonin-eCFP (USH1C protein harmonin) (UniProt Q9Y6N9); experiment: as above
T1 sequence: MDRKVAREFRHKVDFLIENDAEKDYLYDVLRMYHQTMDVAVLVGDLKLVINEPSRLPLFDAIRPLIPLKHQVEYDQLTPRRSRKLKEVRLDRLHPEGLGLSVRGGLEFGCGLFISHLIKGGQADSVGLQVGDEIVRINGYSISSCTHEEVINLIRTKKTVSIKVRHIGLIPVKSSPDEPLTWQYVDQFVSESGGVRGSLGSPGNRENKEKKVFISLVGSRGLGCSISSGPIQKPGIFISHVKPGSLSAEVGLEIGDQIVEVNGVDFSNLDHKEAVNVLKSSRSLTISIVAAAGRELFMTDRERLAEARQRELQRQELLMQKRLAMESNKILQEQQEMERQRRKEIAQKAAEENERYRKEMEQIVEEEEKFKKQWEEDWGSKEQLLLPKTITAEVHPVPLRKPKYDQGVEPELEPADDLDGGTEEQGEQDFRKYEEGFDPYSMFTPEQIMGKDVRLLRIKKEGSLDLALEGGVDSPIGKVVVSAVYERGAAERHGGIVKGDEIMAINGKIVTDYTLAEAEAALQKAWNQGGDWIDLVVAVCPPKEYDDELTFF

| Binder | binding [1] | binding [2] |
| --- | --- | --- |
| eYFP-SANS (scaffold protein containing ankyrin repeats and SAM domain, USH1G protein), wild type (protein, UniProt Q495M9 1-461) MNDQYHRAARDGYLELLKEATRKELNAPDEDGMTPTLWAAYHGNLESLRLIVSRGGDPDKCDIWGNTPLHLAASNGHLHCLSFLVSFGANIWCLDNDYHTPLDMAAMKGHMECVRYLDSIAAKQSSLNPKLVGKLKDKAFREAERRIRECAKLQRRHHERMERRYRRELAERSDTLSFSSLTSSTLSRRLQHLALGSHLPYSQATLHGTARGKTKMQKKLERRKQGGEGTFKVSEDGRKSARSLSGLQLGSDVMFVRQGTYANPKEWGRAPLRDMFLSDEDSVSRATLAAEPAHSEVSTDSGHDSLFTRPGLGTMVFRRNYLSSGLHGLGREDGGLDGVGAPRGRLQSSPSLDDDSLGSANSLQDRSCGEELPWDELDLGLDEDLEPETSPLETFLASLHMEDFAALLRQEKIDLEALMLCSDLDLRSISVPLGPRKKILGAVRRRRQAMERPPALEDTEL | binds | binds |
| eYFP-SANS-K213E (ΔNLS_1^213–224) (protein, UniProt Q495M9 1-461) MNDQYHRAARDGYLELLKEATRKELNAPDEDGMTPTLWAAYHGNLESLRLIVSRGGDPDKCDIWGNTPLHLAASNGHLHCLSFLVSFGANIWCLDNDYHTPLDMAAMKGHMECVRYLDSIAAKQSSLNPKLVGKLKDKAFREAERRIRECAKLQRRHHERMERRYRRELAERSDTLSFSSLTSSTLSRRLQHLALGSHLPYSQATLHGTARGETKMQKKLERRKQGGEGTFKVSEDGRKSARSLSGLQLGSDVMFVRQGTYANPKEWGRAPLRDMFLSDEDSVSRATLAAEPAHSEVSTDSGHDSLFTRPGLGTMVFRRNYLSSGLHGLGREDGGLDGVGAPRGRLQSSPSLDDDSLGSANSLQDRSCGEELPWDELDLGLDEDLEPETSPLETFLASLHMEDFAALLRQEKIDLEALMLCSDLDLRSISVPLGPRKKILGAVRRRRQAMERPPALEDTEL | – | binds |
| eYFP-SANS-L195E (ΔNES_1^181–195) (protein, UniProt Q495M9 1-461) MNDQYHRAARDGYLELLKEATRKELNAPDEDGMTPTLWAAYHGNLESLRLIVSRGGDPDKCDIWGNTPLHLAASNGHLHCLSFLVSFGANIWCLDNDYHTPLDMAAMKGHMECVRYLDSIAAKQSSLNPKLVGKLKDKAFREAERRIRECAKLQRRHHERMERRYRRELAERSDTLSFSSLTSSTLSRRLQHLAEGSHLPYSQATLHGTARGKTKMQKKLERRKQGGEGTFKVSEDGRKSARSLSGLQLGSDVMFVRQGTYANPKEWGRAPLRDMFLSDEDSVSRATLAAEPAHSEVSTDSGHDSLFTRPGLGTMVFRRNYLSSGLHGLGREDGGLDGVGAPRGRLQSSPSLDDDSLGSANSLQDRSCGEELPWDELDLGLDEDLEPETSPLETFLASLHMEDFAALLRQEKIDLEALMLCSDLDLRSISVPLGPRKKILGAVRRRRQAMERPPALEDTEL | binds | binds |
| eYFP-ANKS4B (ankyrin repeat and SAM domain-containing protein 4B) (protein, UniProt Q8N8V4 1-417) MSTRYHQAASDSYLELLKEATKRDLNLSDEDGMTPTLLAAYHGNLEALEIICSRGGDPDRCDIWGNTPLHFAASNGHAHCVSFLVNFGANIFALDNDLQTPLDAAASREQNECVALLDKAATAQNIMNPKKVTRLKEQAQKNARRQIKECERLQEKHQNKMAHTYSKEESGTLSSSKGTFSRSSPSNASAPGTFGSLSKGIKDTFKIKFKKNKDTAEQVGKEGRSGQRNVMEVFREEEEDSFSGDFKEKLQLSAEEDGSVHHESILNRPGLGSIVFRRNRISSPEDISDSKREFGFKLPSELLQRQGASEADEGAADEEGEENGLKDDLPWDDDEVEWEEDVVDATPLEVFLLSQHLEEFLPIFKREQIDLEALLLCSDEDLQSIQMQLGPRKKVLNAINRRKQVLQQPGQLVDTSL | no binding | binds |
